Reference: article PMC4336329 (PLoS ONE, 2015)
The whole screen tested about 310,000 compounds, of which about 2,200 (0.71%) showed an effect of 50% or more. Effects have a minus sign here. Some of the results follow.

biological target: human ether-à-go-go-related gene (hERG) potassium channel (human, UniProt Q12809); test: primary screen, population patch clamp on CHO cells stably expressing hERG
Sequence (Q12809 whole entry, looked up): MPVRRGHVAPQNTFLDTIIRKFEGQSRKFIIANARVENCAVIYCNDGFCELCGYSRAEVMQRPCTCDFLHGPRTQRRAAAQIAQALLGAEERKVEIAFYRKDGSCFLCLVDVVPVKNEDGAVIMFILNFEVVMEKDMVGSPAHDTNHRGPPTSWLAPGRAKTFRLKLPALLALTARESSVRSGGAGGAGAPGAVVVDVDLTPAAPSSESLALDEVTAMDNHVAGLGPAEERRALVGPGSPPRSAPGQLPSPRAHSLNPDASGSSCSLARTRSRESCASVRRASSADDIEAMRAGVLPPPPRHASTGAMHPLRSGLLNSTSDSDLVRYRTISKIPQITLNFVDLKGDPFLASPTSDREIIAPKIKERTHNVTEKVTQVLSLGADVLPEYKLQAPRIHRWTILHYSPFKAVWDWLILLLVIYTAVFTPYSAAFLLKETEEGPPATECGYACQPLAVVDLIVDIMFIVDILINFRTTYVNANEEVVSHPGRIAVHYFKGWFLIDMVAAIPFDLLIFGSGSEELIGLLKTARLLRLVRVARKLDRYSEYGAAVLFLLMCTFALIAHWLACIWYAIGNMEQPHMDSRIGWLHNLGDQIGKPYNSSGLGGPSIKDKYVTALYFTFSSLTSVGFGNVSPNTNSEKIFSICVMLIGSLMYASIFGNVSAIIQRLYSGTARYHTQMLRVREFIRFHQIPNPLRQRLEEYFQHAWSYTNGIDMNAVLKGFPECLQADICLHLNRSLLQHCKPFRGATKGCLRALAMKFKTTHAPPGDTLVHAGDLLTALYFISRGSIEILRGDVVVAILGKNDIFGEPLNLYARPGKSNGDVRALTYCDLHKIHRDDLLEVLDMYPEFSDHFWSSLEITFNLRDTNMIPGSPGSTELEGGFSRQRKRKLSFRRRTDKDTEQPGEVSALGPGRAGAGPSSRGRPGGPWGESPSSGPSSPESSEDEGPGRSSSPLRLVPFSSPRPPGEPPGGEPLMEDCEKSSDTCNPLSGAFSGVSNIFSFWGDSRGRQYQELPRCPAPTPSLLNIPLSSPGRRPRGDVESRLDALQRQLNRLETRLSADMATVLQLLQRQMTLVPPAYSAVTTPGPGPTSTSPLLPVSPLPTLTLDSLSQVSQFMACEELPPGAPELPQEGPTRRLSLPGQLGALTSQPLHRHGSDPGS

Row | Structure (SMILES) | hERG current change (%, negative = inhibition) at 1uM [%]
1 | O=C(CCc1nc2ccccc2c(=O)[nH]1)Nc1nnc(SCc2ccc(Cl)cc2)s1 | 14.7
2 | O=C(Nc1nc(-c2ccc(Br)cc2)cs1)c1cccnc1 | 6.29
3 | CCOC(=O)[C@H]1[C@H]2COc3ccccc3[C@@H]2N2C(=O)c3cc(F)ccc3NC(=O)[C@@]12C | 5.9
4 | COc1ccc(F)cc1C(=O)C1CCCN(Cc2ccc(Sc3nncn3C)o2)C1 (stereo not drawn) | 17.4
5 | CNS(=O)(=O)c1ccc(N2CCCC2)c([N+](=O)[O-])c1 | 9.46
6 | Cc1noc(C)c1COC(=O)c1ccc(F)c(S(=O)(=O)N2CCCCC2)c1 | -0.643
7 | O=C1/C(=C/c2ccccn2)SC(=S)N1N1CCOCC1 | 4.2
8 | Cc1ccc(-c2nc(SCC(=O)Nc3cc(C)on3)c3c(=O)n(C)c(=O)n(C)c3n2)cc1 | 14.5
9 | O=C1CCC/C1=C/Nc1cccc(F)c1 | 15
10 | CCOC(=O)CCSc1cc(C)c2ccccc2n1 | 10.4
11 | CC(=O)N(c1ccccc1)C1CCCC1 | 8.96
12 | Cc1ccc(C#CC(C)(O)C(C)(C)C)cn1 (stereo not drawn) | 11.3
13 | CC(C)(C)c1nc(Sc2ccc([N+](=O)[O-])cn2)n[nH]1 | 14.8
14 | COc1ccc(Cl)cc1-n1c(C)cc(C=O)c1C | 3.79
15 | C=C(C)COc1ccc(-c2nc(N)ncc2-c2ccccc2OC)c(O)c1 | -0.777
16 | Cc1cc([N+](=O)[O-])ccc1NC(=O)C(C)[n+]1ccccc1.[Br-] (stereo not drawn) | 18.1
17 | COc1ccc(C(=O)/C=C/Nc2ccc(C)cn2)cc1OC | 11.9
18 | CC(=O)N1CCN(c2ccc(NC(=O)c3cccc(OCc4ccccc4)c3)cc2)CC1 | 10.2
19 | COC(=O)c1cc(CNC(=O)c2ccccc2Cl)ccc1OC | 5.03
20 | CCCCOc1ccc(N(CC(=O)NC2CCCCC2)C(=O)c2snc(C(N)=O)c2N)cc1 | 8.41
21 | CC(C)c1ccc(CNCCCSc2ncccn2)cc1.Cl | 0.294
22 | O=C(CCOc1ccccc1)N1CCN(S(=O)(=O)c2cccs2)CC1 | 1.47
23 | CCCCn1c(SCC(=O)N2CCCCC2C)nc2cc(S(N)(=O)=O)ccc21 (stereo not drawn) | 2.56

Row | Structure (SMILES) | hERG current change (%, negative = inhibition) at 1uM [%]
24 | O=C(CSc1nccc(=O)[nH]1)Nc1cc(C(F)(F)F)ccc1N1CCOCC1 | 11.9
25 | Cc1ccc(CNC(=O)c2cc3c(C)nc4ccccc4c3o2)cc1 | 12.9
26 | CCCCC(=O)Nc1nc2c(s1)COc1ccccc1-2 | 11
27 | CCOc1ccccc1NC(=O)C1=C(C)NC(=S)NC1c1cccs1 (stereo not drawn) | 6.54
28 | CCN(CC(=O)Nc1ccc(S(=O)(=O)N2CCCC2)cc1)Cc1ccccc1 | 10.9
29 | Cc1nnc(NC2=NCCC2)s1 | 9.99
30 | Cc1onc(-c2ccccc2Cl)c1C(=O)Nc1cccc(-c2cn3cccnc3n2)c1 | 0.225
31 | Cc1ccc(C)c(NC(=O)COC(=O)Cn2c(C)csc2=O)c1 | 18.5
32 | COc1cccc(NC(=S)NCc2ccncc2)c1 | 4.92
33 | O=C(NC1CCCCC1)NC1CC2CCC(C1)N2Cc1nnnn1Cc1ccc2c(c1)OCO2 (stereo not drawn) | -1.53
34 | COc1ccccc1NS(=O)(=O)c1ccc2oc(SC(C)C(=O)N3CCNC3=O)nc2c1 (stereo not drawn) | 0.24
35 | CCOc1ccc(C(=O)Nc2cccc(C(=O)O)c2C)cc1Cl | 20.3
36 | Cc1nnc(SCC(=O)NCC2CCCCC2)n(N)c1=O | 9.69
37 | Cc1[nH]c2ccccc2c1C(=O)CSc1ccc(F)cc1 | 12.9
38 | c1ccc(CCn2nnnc2C(c2cccnc2)N2CCN(c3ccccc3)CC2)cc1 (stereo not drawn) | -17.8
39 | COc1cc(NC(=O)c2ccccc2)c(OC)cc1NC(=O)CN1C(=O)NC2(CCCCC2)C1=O | 6.21
40 | COc1ccc(Cl)cc1NC(=O)CN(C1CCCCC1)S(C)(=O)=O | -7.42
41 | O=C(CN(C(=O)CNC(=O)c1cccs1)c1ccccc1)NC1CCCCC1 | 18.3
42 | O=C(N/N=C/c1c(O)n(Cc2ccccc2)c(=O)[nH]c1=O)c1ccccc1 | 15.2
43 | COc1ccc(OC)c(/C=N/NC(=O)c2ccc(N(C)S(=O)(=O)c3ccccc3)cc2)c1 | 5.62
44 | C[Se]C[C@@H](N)C(=O)O.Cl | 9.97
45 | COCCCNC(=O)CCn1nc(-c2ccc(Cl)cc2)ccc1=O | 1.48
